Assay [1] concerns the target H1 HA stem construct (mini-HA #4900). Description: mRNA display binding score; higher = more enriched on the antigen. Particulars: antigen blocked with: nothing. As for the experimental part:
(§1)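 A pool of natively paired antibodies, displayed as scFv on mRNA, was selected once on antigen-coated beads and sequenced before and after; two replicates.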

Assay [2] addresses H3 HA stem construct (H3ssF). The assay is described as above. Particulars: antigen blocked with: nothing. As for the experimental part: as §1

The list shows a part of the results. Binding of human antibodies (heavy:light variable regions, tested as scFv in one mRNA-display pool) to influenza hemagglutinin, with or without the stem antibody CR9114 bound first. Score = (mean enrichment − median) / interquartile range of that screen; higher = more enriched, 0 = typical non-binder. Active = above the paper's cut-off per screen: stems 28; unblocked H1 Solomon Islands 5, H1 Michigan 3, H3 5, H5 19, H7 2.85, both B 5; blocked 9, 7, H5 10, H7 10, B Phuket 10, B Lee 11.5. Scores are scaled within each screen and are no affinities; replicates correlate at about 0.6 to 0.9, and antibodies rare in the pool are noisier.

B1: R95-1E05 (protein)
chain 1: QVQLVQSGPEVKKPGSSVKVSCKASADTFSSYGFSWVRQAPGQGFEWMGGIIPAFGTTNYPQRFQDRVTITADESTRTVYMELSSLRSEDTAMFYCARDSPPWGDVNNNDAFDIWGQGTMVTVSS
chain 2: DVVMTQSPLSLPVTLGQPASISCRSSQSLVYTDGNTYLNWFQQRPGQSPRRLIYKVSNRDSGVPDRFSGSGSGTDFTLKISRVEAEDVGVYYCMQATDWPSITFGQGTRLEIK
Turning to B1, the “mRNA display binding score” value in assay [1] is inactive: -0.939; in assay [2], inactive: -0.753.

B2: AG12-C05 (protein)
chain 1: VQLQESGPGLVKPLQTLSLTCTVSGVSIANNGFYWTWVRQRPGKGLEWIGNIFYSGDTSYSPSVERRLTISLDTSKNQFSLRLASVTAADTAVYYCTVESWYSSGPGENHFDSWGQGTLVTVSS
chain 2: DIQMTQSPSSLSASVGDTVTITCRASETIKFYLNWYQQKPGKAPKLLMSPASSFHRGAPSRFSASGSGTDFSLTISSLQPEDFATYYCQQSYITPRTFGQGTKVEIK
As for B2, the figures for the “mRNA display binding score” value in assay [1] and in assay [2] were inactive: 0.0276 and inactive: -0.0874, respectively.

B3: 240-14-IgA-2F02 (protein)
chain 1: EVQLLESGGGLVQPGGSLRLSCAASGFTFSTYAMSWVRQAPGKGLEWVSTISGSGGSTYDAESVKGRFTISRDNSKNTLYLQMNSLRAEDTAVYYCAKEGGDFWSGYYANWFDPWGQGTLVTVSS
chain 2: QSALTQPRSVSGSPGQSVTISCTGTRSDVGGYNYVSWYQQHPGKAPKVIIYDVKKRPSGVPDRFSGSKSGNTASLTISGLQAEDEADYYCSAFAGSHTLFGGGTKVTVL
With B3, the “mRNA display binding score” value in assay [1] was inactive: -0.397; in assay [2], active: 345.

B4: antibody 3E02 (protein)
chain 1: VQLVESGGGVVQPGRSLRLSCATSGFIFSRYAIHWVRQAPGKGLEWVAVISNDGTKEECADSVKGRFTISRDNSKSTLYLQMNSLRAEDTAVYYCARDATQYGYETNWFFDSWGRGLLVTVSS
chain 2: SYELTQPASVSVSPGQTANITCSGDKLGDKYTSWYQQKPGQAPVLVIYQDTKRPSGIPERFFGSSSGDAATLTISGTQAMDEADYYCQAWVWDSRVVFGGGTKLTVL
In the case of B4, the entries for the “mRNA display binding score” value in assay [1] and in assay [2] were inactive: -0.045 and inactive: -0.448, respectively.

B5: R95-1A04 (protein)
chain 1: LVQLQESGPGLVKPSETLSLTCTVSGYSINTGYYWGWIRQPPGKGLQWIGSIYYSGRTHYNPSLRSRVTIFLDTSKNQFSLKLRSVTAADTAVYYCARWWSSSGGSNWFDPWGQGTLVTVSS
chain 2: SYELTQPPSVSVAPGQTARITCGGDNIESKSVHWYQQKPGQAPALVVYDDSDRPSGIPERYSGSNSGNTATLTISRVEAGDEADYYCQVWDGSGDQALVLFGGGTKLTVL
Turning to B5, the “mRNA display binding score” value was inactive: -0.87 in assay [1] and inactive: -0.172 in assay [2].

B6: R95-2A05 (protein)
chain 1: QVHLEQSGAEVKKPGASVKVSCKVSGHTLTELSMHWVRQAPGKGLEWVGGFDPEVGKPVYAQNFQGRITMTEDTIWDTAYMELSSLKSEDTAVYYCATGTRAGLPTPLYYYGMDFWGQGTPVTVSS
chain 2: EIVMTQSPATLSVSPGERATLSCRASQGVSSDVVWYQQKPGQAPRPLIYGASTRATGVPGRFTASQSGTEFTLTISSLQSEDFAVYYCQQYNKWPLTFGGGTRVEL
B6: the “mRNA display binding score” value is inactive: -1.28 in assay [1] and inactive: -0.74 in assay [2].

B7: W85-3C08 (protein)
chain 1: ASLVEFWGEGLVPAGGPLRLSCAASGFSVSSNSMSWVRQAPGRGLEWVSLIYTGGSTVYADSVRGRFTISRDNFKNTLLLQMNSLRTEDTAVYYCARAERDGDYEGNWGQGTLVTVSA
chain 2: EIVLTQSPATLSLSPGERATLSCRASQSVSSYLAWYQQKPGQAPRLLIYGASNRATGIPARFSGSGSGTDFTLTISSLEPEDFALYYCQQRSNWITFGQGTRLEIK
On to B7, for which the “mRNA display binding score” value in assay [1] is inactive: -0.09; in assay [2] it was inactive: 0.0922.

B8: 008-10-1C03 (protein)
chain 1: EVQLVESGGGLVQPGGSLRLSCEASGFTFSSYWMSWVRQAPGKGLEWVAVMDQDGSDIYYVDSVKGRFTISRDNAKNSLSLQMNSLRAEDTAVYYCARDYWRSGEYWGQGALVTVSS
chain 2: EIVLTQSPATLSLSPGERATLSCRASQSVSSYLAWYQQRPGQAPRLLIHDASNRATGIPARFSGSGSGTDFTLTISSLEPEDFAVYYCQQGNKWPRTFGQGTKVEIK
With B8, the results for the “mRNA display binding score” value in assay [1] and in assay [2] were inactive: -0.405 and inactive: -0.711, respectively.

B9: W85-1H07 (protein)
chain 1: EVQLVESGGGLVKPGGSLRLSCAASGFHFSGYSMNWVRQAPGKGLEWVASISGSVSDIHYADSVKGRFTISRDNARNSLYLQMTSLRAEDTALYYCVRDSYNWNDREFDPWGQGTLVTVSS
chain 2: DIQMTQSPSSLSASVGDRVTFSCRASQSISIYLNWYQQKPGKAPKLLIYAASSLQTGVPSRFSGSGSGTDFTLSISSLQLEDFATYYCQQSYTTPPTFGQGTKVEVK
On to B9, for which the “mRNA display binding score” value in assay [1] was inactive: -0.426; in assay [2] it was inactive: -0.445.

B10: 019-10-4A03 (protein)
chain 1: EVQLVESGGGVVKPGGSLRLSCAASGIDFFNAWMSWVRQAPGKGLQWVGHIRSLTDGGTTDYAAPGKGRFTISRDDSQNTLYLQMESLRTDDTAVYYCTTDYGDYLNGGRWGQGTLVTVSS
chain 2: DIVMTQSPLSLSVTPGEPASISCRSSQSLLRNNEFNYLDWYLQKPGQSPQVLIYFGSHRASGVPDRFSGSGSGTSFTLRINRVEAEDVGVYYCMQALQTPYTFGQGTKVEIK
With B10, the “mRNA display binding score” value in assay [1] was inactive: 0.748; in assay [2], inactive: 0.0127.

B11: antibody 3D04 (protein)
chain 1: EVQLVESGGGVVQPGRSLRLSCAPSGFTFDIYAMQWVRQAPGKGLEWVAFVSYDGSIKNYADSVKGRFTISRDKYLEMNSLRPEDTAVYFCARGRVAYCTTDCYHAFDIWGQGTMVTVSS
chain 2: SYELTQPHSVSVAPGQTATITCGGDYIERKSVHWYQQKPGQAPVLVVYDDSDRPSGIPERLSGSNSGNTATLTISRVEGGDEADYYCQVWDSSCDCWVFGGGTKVTVL
Turning to B11, the “mRNA display binding score” value in assay [1] is inactive: -1.15; in assay [2] it was inactive: 0.653.

B12: W85-3B07 (protein)
chain 1: QVQLQESGPGLVKPSETLSLTCSVSGDSITSYYCSWIRQSPGKGLEWIGYIYYTGSTNYNPSLKSRVTISVDTSKNQFSLKLSSVTAADTAVYYCARHGQLYDVWSGYYRGPEHRYFDLWGRGTLVTVSS
chain 2: DIVMTQSPDSLAVSLGERATINCKSSQSVLYSSNNRNFLAWYQQKPGQPPKLLISWASARESGVPDRFSGSGSGTDFTLTISNLQAEDVALYYCQQYYTTPYTFGQGTKLEIK
On to B12, for which the “mRNA display binding score” value was inactive: 0.452 in assay [1] and inactive: 0.193 in assay [2].

B13: antibody 2E04 (protein)
chain 1: QVQLQESGPRLVKPSETLSLTCAVSGYSISNYYWGWIRQPPGKGLEWIGSLNHRGNTFYSPSLKSRVTISVDTSKNHFSLKVNSVTAADTAVYYCARGNYYDVDLKLFYFDYWGQGTLVTVSS
chain 2: DIQMTQSPSSLSASVGDRVTITCRASQNIKTYLNWYQQKPGKAPNLLIYGASSLESGVPSRFSGSGSGTEFTLTISSLQPEDFATYYCQQSYKMFTFGGGTKVEIK
Turning to B13, the “mRNA display binding score” value in assay [1] was inactive: -0.235; in assay [2] it was inactive: -0.306.

B14: C2-3-G03 (protein)
chain 1: VQLVESGGRLVQPGGSLRLSCAASGFIFSNYWMHWVRQAPGKGLVWVSRINSDGSSIVYADSVKGRFTVSRDNAKNTLYLQMNSLRAEDTAVYYCAREPYHPPQFDYWGQGTLVTVSS
chain 2: DIQMTQSPSSLSASVGDRVTITCRASQGIDTYLNWYRQQPGRPPKLLIYSAANLPSGVPSRFSGSGSGADFTLTISGLQPEDFATFYCQQSYRSPPTFGGGTKVEIK
Regarding B14, the figures for the “mRNA display binding score” value in assay [1] and in assay [2] were inactive: -0.669 and inactive: 1.34, respectively.

B15: AG13-3D02 (protein)
chain 1: VQLVESGGGLVKPGGSLRLSCAASGFTFSDYYMTWIRQAPGKGLEWVSYIDSWSTYTDYPDSVKGRFTVSRDNAKNSLYLQMNSLRAEDTAVYFCARDRGDCSRTTCSFDSWGQGTLVTVSS
chain 2: DIQMTQSPSSLSASVGDSVNITCRASQNIRRSLHWYQQKSGRAPQLLIFSVSALHGGVPTRFSGSGSGTEFTLTISSLQPEDFATYFCQQSYSRPLTFGPGTKVDIK
B15: the “mRNA display binding score” value in assay [1] was inactive: -0.231; in assay [2], inactive: 0.0703.

B16: R95-1G07 (protein)
chain 1: EVQLVESGGGVVQPGRSLRLSCAASGFTFGSYAIHWVRQAPGKGLEWVAFDSNNKYYVDSVKGRFTTSRDNSKNTLYLQMDSLRAEDTAVYYCAREFQTYAFDYWGQGTLVTVST
chain 2: SYELTQPPSVSVAPGQTARITCGGNNIGSKSVNWYQQKPGQAPVLVVYDDSDRPSGIPERFSGSNSGNTATLTISRVEAGDEADYHCQVWDSRSDHPVFGGGTKVTVL
For B16, the “mRNA display binding score” value in assay [1] was inactive: -0.9; in assay [2] it was inactive: -0.73.

B17: K77-2E07 (protein)
chain 1: QVQLVQSGDEVKKPGASMKVSCRSSGFTLTTFYMHWVRQAPGQGLEWVGLIHPNGITTTYAQNFLGRVAMTRDTSTNTVYMDLRSLRSDDTAVYFCARGRAEETWTQRWPPYSLDVWGQGTRVTVSS
chain 2: EIVLTQSPGTLSLSPGERATLSCRASRSISSSYLAWYQQRPGQAPRLLIYGASSRATGIPDRFSGSGSGTDFTLTISTLEPEDFAVYYCQHYGSSPPVLFGPGTKVDIK
Turning to B17, the results for the “mRNA display binding score” value in assay [1] and in assay [2] were inactive: -0.0765 and inactive: -0.242, respectively.

B18: 100F4 (protein)
chain 1: QLQLQESGLGLVKPSETLSLTCTVSGDSVSSGSYYWSWLRQPPGKGLEWIGNMHGSGHTNYNPSLKSRVTITPDTSKNHFSLRLSSVTAADTAVYYCARALLTTVTTFEYWGQGTLVTVSS
chain 2: QSVLTQPPSVSGAPGQRVTISCTGGSSNIGAGYSVHWYQQLPGTAPKLLIYGSNSRPSGVPDRFSGSKSGTSASLAITGLRPEDEADYYCQSYDSSLSGSQVFGAGTRVTVL
Regarding B18, the “mRNA display binding score” value is inactive: -1.03 in assay [1] and inactive: -0.763 in assay [2].

B19: R95-1D06 (protein)
chain 1: EVQLVESGGGLVKPGGSLRLSCAASGFTFRSYTMNWVRQAPGKGLEWVSSISTTLSFIYYADSVKGRFTISRDNAKNSLYLQMNSLRAEDTAVYYCARDLNSYGTVDYWGQGTLVTVSS
chain 2: SYELTQPPSVSVAPGQTARIPCGGNNIGSRPVNWYQQKPGQAPVLVVYDDNDRPSGIPERFSGSNSGNTATLTISRVEAADEADFYCQVWDSSRDQSVLGGGTKLTVL
As to B19, the entries for the “mRNA display binding score” value in assay [1] and in assay [2] were inactive: 0.128 and inactive: -0.614, respectively.

The record behind these values is the supplement of paper PMC11383711.
